Structures are written as SMILES. Out of some 310,000 compounds screened, about 14,000 (4.5%) showed an effect of 50% or more. Effects have a minus sign here. The list shows a part of the results.
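Note: peak tail current of the secondary pulse compared with the same well before compound.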

The target of this experiment is human ether-à-go-go-related gene (hERG) potassium channel (human, UniProt Q12809). The experiment in a line: primary screen, population patch clamp on CHO cells stably expressing hERG.
Sequence of human ether-à-go-go-related gene (hERG) potassium channel (Q12809 whole entry, looked up): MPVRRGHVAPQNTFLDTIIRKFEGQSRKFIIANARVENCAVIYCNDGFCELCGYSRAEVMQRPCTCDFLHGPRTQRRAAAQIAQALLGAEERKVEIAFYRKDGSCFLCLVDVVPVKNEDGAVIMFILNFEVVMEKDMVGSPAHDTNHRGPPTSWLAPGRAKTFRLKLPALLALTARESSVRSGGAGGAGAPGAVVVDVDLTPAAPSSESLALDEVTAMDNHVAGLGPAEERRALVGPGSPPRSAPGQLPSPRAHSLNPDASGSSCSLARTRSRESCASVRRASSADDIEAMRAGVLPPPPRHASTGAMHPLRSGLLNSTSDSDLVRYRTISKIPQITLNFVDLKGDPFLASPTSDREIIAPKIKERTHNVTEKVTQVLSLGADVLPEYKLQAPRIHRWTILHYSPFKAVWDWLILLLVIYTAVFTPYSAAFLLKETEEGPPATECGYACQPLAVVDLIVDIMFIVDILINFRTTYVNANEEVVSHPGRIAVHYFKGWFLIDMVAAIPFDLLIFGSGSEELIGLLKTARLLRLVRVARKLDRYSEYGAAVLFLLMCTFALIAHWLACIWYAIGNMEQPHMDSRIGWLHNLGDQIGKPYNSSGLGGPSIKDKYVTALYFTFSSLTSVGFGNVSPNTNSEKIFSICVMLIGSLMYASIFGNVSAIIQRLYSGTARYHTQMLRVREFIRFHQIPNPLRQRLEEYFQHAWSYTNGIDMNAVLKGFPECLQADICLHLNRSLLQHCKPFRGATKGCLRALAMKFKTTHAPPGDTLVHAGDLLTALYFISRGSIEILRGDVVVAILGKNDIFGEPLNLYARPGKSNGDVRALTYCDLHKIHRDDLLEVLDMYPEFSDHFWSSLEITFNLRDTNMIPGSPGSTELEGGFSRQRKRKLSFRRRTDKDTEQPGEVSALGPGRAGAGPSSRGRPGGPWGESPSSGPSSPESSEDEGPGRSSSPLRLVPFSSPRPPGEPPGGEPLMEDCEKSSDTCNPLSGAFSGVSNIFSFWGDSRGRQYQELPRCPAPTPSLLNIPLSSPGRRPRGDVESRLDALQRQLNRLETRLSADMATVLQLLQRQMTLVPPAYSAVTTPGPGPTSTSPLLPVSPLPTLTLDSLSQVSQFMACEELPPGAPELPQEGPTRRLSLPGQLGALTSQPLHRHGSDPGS
As to `CC(=O)C1=C(C)N(Cc2ccccc2)C(=O)N[C@@H]1c1cccc(C(F)(F)F)c1`, the “hERG current change (%, negative = inhibition) at 10uM” value was found to be 2.66%. As for `COc1ccc(NC(=O)/C(=C\c2ccccc2)NC(=O)c2ccco2)cc1`, the figure is 0.0276%. To `S=c1[nH]nc(-c2cc3ccccc3o2)n1Cc1ccccc1` belongs 11.4%; to `O=C(O)C1=C[C@H](c2ccc(C(F)(F)F)cc2)C[C@H](OCc2ccc(CO)cc2)O1`, 21.5%; to `CC(=O)NC(C)c1nc2ccccc2n1C(C)C` (stereo not drawn), -10.2%. Consider `O=C(NCc1ccccn1)c1ccc([N+](=O)[O-])cc1`, for which the “hERG current change (%, negative = inhibition) at 10uM” value is reported as -29.1%. Turning to `COc1ccc(S(=O)(=O)NCCOc2ccccc2)cc1C`, the “hERG current change (%, negative = inhibition) at 10uM” value is -3.36%. `COc1ccc(NC(=O)CCN2CCCCCC2)c(OC)c1.Cl`: the “hERG current change (%, negative = inhibition) at 10uM” value was 0.735%. As for `CCCNC(=O)c1nn2c(C(F)(F)F)cc(-c3ccccc3)nc2c1Br`, the figure is 15.9%; as for `COc1ccc(CC(=O)NNC2=Nc3cccc4cccc2c34)cc1OC`, 1.79%. In the case of `COc1cc2[nH]c(=O)n(Cc3ccccc3Cl)c(=O)c2cc1OC`, the “hERG current change (%, negative = inhibition) at 10uM” value is given as -0.4%. For the molecule `NC(=O)C(c1ccccc1)c1ncc(C(F)(F)F)cc1Cl` (stereo not drawn), the “hERG current change (%, negative = inhibition) at 10uM” value turned out to be 4.88%.

In the case of `Cc1cc2c(cc1C)NC(c1nc3ccccc3[nH]1)C1=C(CC(C)(C)CC1=O)N2` (stereo not drawn), the “hERG current change (%, negative = inhibition) at 10uM” value was determined as 11.2%. In the case of `O=C(NCc1cccc(C(F)(F)F)c1)C1CCCN(c2cnccn2)C1` (stereo not drawn), the “hERG current change (%, negative = inhibition) at 10uM” value is given as -61%.

As for `O=C1CC(N2CCOCC2)C(=O)N1c1cccc(Cl)c1` (stereo not drawn), the “hERG current change (%, negative = inhibition) at 10uM” value is 1.18%. Regarding `COc1ccc(CNC(=O)C2CCCN2S(=O)(=O)c2ccc(Cl)cc2)cc1` (stereo not drawn), the “hERG current change (%, negative = inhibition) at 10uM” value was -26.5%.

Turning to `O=C(O)CP(=O)(O)c1ccc(Cl)cc1`, the “hERG current change (%, negative = inhibition) at 10uM” value is -3.27%. To `O=C(Nc1cccnc1Cl)c1cccnc1Cl` belongs 2.03%; to `Cl.O=C(NC12CC3CC(CC(C3)C1)C2)c1ccc(=O)oc1`, 1.45%. As for `Cc1ccc(S(=O)(=O)N2CCC(=O)N(CCOCc3ccccc3)CC2)cc1`, the figure is -6.26%; as for `COc1ccccc1N1C(=O)c2ccccc2NC1c1cc(OC)c(OC)c(OC)c1` (stereo not drawn), 5.13%. As for `COc1ccc2c(C)cc(SCC(=O)Nc3cc(C(N)=O)cc(C(N)=O)c3)nc2c1`, the figure is 2.44%; as for `COCCN1CCn2c(nc3cc(NC(C)=O)ccc32)C1`, 19.3%. For the molecule `Cc1cc(C)nc(NC2=NCC(=O)N2c2cc(Cl)cc(Cl)c2)n1`, the “hERG current change (%, negative = inhibition) at 10uM” value was -14.8%. In the case of `COC(=O)c1c(C(=O)OC)c(C)n(Cc2ccco2)c1C`, the “hERG current change (%, negative = inhibition) at 10uM” value was -2.22%. As for `O=C(NNc1ccc(F)cc1F)c1c(F)cccc1Cl`, the figure is 16.8%; as for `Cc1ccc(N(CC(=O)O)S(C)(=O)=O)cc1`, 15%.

Consider `Clc1cccc(Cl)c1Cn1cnc2c(NCc3ccco3)ncnc21`, for which the “hERG current change (%, negative = inhibition) at 10uM” value is reported as -3.72%. To `COc1ccc(NC(=O)CS(=O)c2ccc(Cl)c(Cl)c2)cc1` (stereo not drawn) belongs 6.27%; to `CN(CC(=O)Nc1ccccc1Cl)C(=O)c1cc(-c2cccs2)nn1-c1ccccc1`, 12.2%. As for `Cn1c(=NC(=O)c2ccc3c(c2)OCCO3)sc2cc(S(C)(=O)=O)ccc21`, the figure is 38.9%; as for `CC(C)c1ccc(C(=O)Nc2cccnc2)cc1`, 3.63%; as for `Cc1nnc(SCc2ccccc2)nc1-c1ccccc1`, -11%. To `CC(=O)c1ccc(OC(=O)N2CCOCC2)cc1` belongs 2.08%. Regarding `OC(COCc1cccs1)CN1CCN(c2ccccn2)CC1` (stereo not drawn), the “hERG current change (%, negative = inhibition) at 10uM” value is on record as -52.5%.

Take `CCOc1ccccc1C1NC(=O)NC(C)=C1C(=O)OC1CCCCC1` (stereo not drawn): the “hERG current change (%, negative = inhibition) at 10uM” value turned out to be 10.8%.

For `CC(NC(=O)COC(=O)c1ccc(Cl)cc1O)c1ccc(F)cc1` (stereo not drawn), the “hERG current change (%, negative = inhibition) at 10uM” value is on record as 7.92%. Regarding `CC12CN3CN(C1)CC(C)(C3)C2=NO`, the “hERG current change (%, negative = inhibition) at 10uM” value came out at 8.67%.

Take `NCCC(=O)NCCc1cnc[nH]1`: the “hERG current change (%, negative = inhibition) at 10uM” value stood at 15.2%.

As to `COc1ccc(CCC(N)=O)cc1OC`, the “hERG current change (%, negative = inhibition) at 10uM” value is reported as 11.1%. As for `COc1cc(S(=O)(=O)n2nc(C)cc2C)ccc1Cl`, the figure is -2.43%.

Regarding `COc1ccc(OC)c(CNC(=O)C2CCCN(c3ncnc4c3nc3n4CCCCC3)C2)c1` (stereo not drawn), the “hERG current change (%, negative = inhibition) at 10uM” value is -59%. Regarding `CCOC(=O)C(CC(=O)c1ccccc1)CC(=O)c1ccccc1`, the “hERG current change (%, negative = inhibition) at 10uM” value is reported as -12.5%. To `CCCn1c(=O)c(C(=O)NCc2ccccn2)c(O)c2ccccc21` belongs -11.1%. For the molecule `COc1cc(NC(=S)N2CCN(S(C)(=O)=O)CC2)cc(OC)c1`, the “hERG current change (%, negative = inhibition) at 10uM” value was 5.84%. As for `O=C(N/N=C/c1cccc(Oc2ccc([N+](=O)[O-])cc2[N+](=O)[O-])c1)c1cncc(Br)c1`, the figure is -32.1%. Take `O=C(NC1CC1)c1nc2c(nnn2Cc2ccccc2Cl)c(=O)[nH]1`: the “hERG current change (%, negative = inhibition) at 10uM” value is 0.681%. To `CC1(C)C=Cc2c(c3c(c4c(=O)c(-c5ccc(O)cc5)coc24)OC(C)(C)CC3)O1` belongs 14.2%. Regarding `C/C=C/c1ccc(OC(C)=O)c(OC)c1`, the “hERG current change (%, negative = inhibition) at 10uM” value was determined as 14%. For `O=S(=O)(NC1CC1)c1ccc(S(=O)(=O)N(Cc2ccccn2)C2CC2)cc1`, the “hERG current change (%, negative = inhibition) at 10uM” value is on record as -29.1%. As for `COc1ccc(NC(=O)Cn2nnc(C(=O)NCCc3ccc(OC)c(OC)c3)c2N)cc1`, the figure is -4.59%; as for `COc1ccccc1C(=O)NCC(=O)N=Nc1c(O)n(C(C)C)c2ccccc12`, -7.32%. To `O=C(NCc1nc2ccccc2[nH]1)C1=C[C@H](c2csc3ccccc23)C[C@H](OCc2ccc(CO)cc2)O1` belongs -4.12%. To `Nc1nc(CN2CCN(c3ccccc3F)CC2)nc(Nc2ccc3c(c2)OCCO3)n1` belongs -74.4%.

As to `Cc1cc(C)c(NC(=O)C(C)N2CCCCCC2)c(C)c1.Cl` (stereo not drawn), the “hERG current change (%, negative = inhibition) at 10uM” value is -5.7%. To `Cc1ccc(-c2ccc(/C=N\NC(=O)c3cc4c(ccc5ccccc54)o3)o2)cc1[N+](=O)[O-]` belongs 10.5%; to `CS(=O)(=O)c1ccc2nc(NC(=O)C3=NN(c4ccccc4)C(=O)CC3)sc2c1`, -22.1%.

Values taken from PMC4336329 (PLoS ONE, 2015).
